# Reference: the supplement of paper PMC5499739
# In all, about 16,000 sequences were measured (“Z-score”: median about -0.37, highest 2% from about 3.1 on). Some of the results follow.
# System: RBM10 RRM1-ZnF-RRM2 (GST-tagged construct)
# Assay: RNAcompete 7-mer binding Z-score; higher = stronger binding preference
# Summary of the method: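 GST-tagged RBM10 constructs (20 pmol) were mixed with a designed pool of 241 399 RNAs up to 41 nt (1.5 nmol), transcribed from microarray-derived DNA templates. Mixing was in 1 ml Hepes pH 7.8 buffer with KCl, NaCl, glycerol, DTT, BSA and glutathione Sepharose beads. Binding ran 30 min at 4°C, followed by four 2-min washes at 4°C, and bound RNA was identified by microarray hybridisation. Each heptamer motif received a one-sided Z-score for enrichment across probes containing it.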
row,Sequence,RNAcompete 7-mer binding Z-score
1,UCACCGC,-0.704
2,GUUGGUA,1.62
3,GGCCACU,-0.621
4,UAGUUCC,-0.653
5,AAGUACC,-0.398
6,UCUGUGG,0.199
7,GCGUUCG,-0.318
8,CAAUCGG,0.217
9,UCCCAGG,-0.114
10,GCCUAAA,-0.555
11,ACUUGCC,-1.04
12,AGAACGG,1.84
13,GAGCAUU,-0.289
14,ACGGACA,0.993
15,CGUAACU,-0.584
16,UGGGAGA,2.56
17,AUAACUG,-0.351
18,CGCGCAU,-0.559
19,CACGGUU,0.075
20,AGUGAAU,0.669
21,GGUCAAC,0.567
22,UACCAUG,-0.355
23,GUUAAAG,0.548

row,Sequence,RNAcompete 7-mer binding Z-score
1,AGUUCUC,-0.686
2,GGAUGAA,2.06
3,AUGGCUG,0.421
4,CGUUAGC,-0.453
5,AAACGGA,1.84
6,CGUAGCU,-0.57
7,GACUCUU,-0.948
8,GGCGAGU,1.95
9,CUGUAAU,-0.57
10,AUUCACU,-0.704
11,AUCCCUA,-0.839
12,UGAGGGA,4.05
13,AGAGUCU,-0.256
14,GCCAACU,-0.744
15,CACGAUC,-0.511
16,UCUCGUU,-0.657
17,GACUGGA,1.24
18,GGUUGCU,0.337
19,GAAGGGU,4.15
20,AGUCUGC,-0.683
21,AUGAAUU,-0.191
22,ACGUUCU,-0.959
23,GCCCUGU,-0.683

row,Sequence,RNAcompete 7-mer binding Z-score
1,UUGCAGC,-0.446
2,CGGGCCC,-0.497
3,GUAUCUA,-0.486
4,UAGCAGG,1.44
5,ACUGCUA,-0.653
6,GAUGCAG,1.11
7,GACCUGU,-0.959
8,GGCAACU,0.0532
9,AAUAUGC,-0.253
10,ACCGUAU,-0.755
11,GAUUUUA,-0.643
12,GCAAUGG,1.7
13,GUGAGUG,1.64
14,GGGUCCU,0.563
15,CCGUGUC,-0.77
16,CUUCUAG,-0.85
17,GCACAAG,0.243
18,AGCGCUU,-0.588
19,UAACUCC,-0.792
20,CAUUACA,-0.369
21,AGUUAUC,-0.435
22,AUGAUUA,-0.147
23,CUCUGGG,0.133

row,Sequence,RNAcompete 7-mer binding Z-score
1,ACUAAAG,-0.0816
2,AAUCUCA,-0.679
3,GGUCUGC,-0.107
4,UGCGUAA,-0.187
5,GAUGCGC,0.0932
6,AUUUGAA,-0.373
7,AAAGCGU,0.159
8,AUGUUAU,-0.464
9,AACCAGA,-0.14
10,UACCACA,-0.493
11,AGAAACG,0.272
12,UAACGUG,0.286
13,UCGAAUU,-0.61
14,CGAACCC,-0.708
15,CGCACUC,-0.752
16,GUAACUC,-0.34
17,AUGCAUA,-0.271
18,AAGAUUA,-0.18
19,AAAUAAC,-0.442
20,UUGUAAG,0.137
21,AUGAUGU,0.108
22,GGCAGCA,0.705
23,CUCUUCG,-0.817

row,Sequence,RNAcompete 7-mer binding Z-score
1,AAUAUAC,-0.26
2,CCUGCUU,-0.941
3,GUUCGUU,-0.227
4,UCCGUAG,-0.271
5,ACCUCCC,-0.832
6,CCUUCAG,-0.766
7,GUAGCUU,-0.366
8,AUGGCAA,1.7
9,GGCCGCG,0.0204
10,UCUCGCC,-0.792
11,CGAGACU,-0.537
12,UCCUAGA,-0.73
13,GAGGACC,0.301
14,GAACCCU,-0.887
15,UCAUUGU,-0.737
16,CAUGCGU,-0.398
17,CGUUUGU,-0.573
18,GGUUGAU,1.36
19,GCUGACU,-0.635
20,AGCACCU,-0.661
21,AGGUUGU,0.691
22,UUUUGUG,-0.22
23,UCUCAUA,-0.795

row,Sequence,RNAcompete 7-mer binding Z-score
1,GGAACAA,1.5
2,GGCGUGG,3.03
3,GACAGAC,-0.191
4,CGGCGCG,0.323
5,GGUUUUA,0.345
6,UUGCUGA,-0.486
7,UUAGAAA,-0.246
8,CCUCGGC,-0.701
9,AUAUUGG,0.931
10,CAUUGGA,0.396
11,CUAUCGC,-0.744
12,CUAUCGA,-0.781
13,AAGAAAG,1.12
14,UGUAGCG,0.527
15,CGAACUG,-0.151
16,ACCGUCA,-0.697
17,UCCUGGA,-0.439
18,CGGGCGC,0.359
19,GCCUUGG,-0.0816
20,UACUGUU,-0.712
21,GGUGAGU,2.05
22,GCUACUC,-0.741
23,UCAGCUU,-0.905

row,Sequence,RNAcompete 7-mer binding Z-score
1,AUGCGGG,2.51
2,AUUUUAA,-0.825
3,CUAAGUA,-0.136
4,GCUCGGG,0.432
5,UGAUGCA,0.0896
6,GUAUGUA,0.461
7,CGUUGAU,-0.449
8,GGGCGAA,2.68
9,GCUUGCA,-0.653
10,GCGAUGA,0.745
11,CACCGUA,-0.668
12,ACGACUA,-0.475
13,GUAUAAC,-0.147
14,AAGAGUU,0.421
15,UCAAGCA,-0.409
16,CCAAUAA,-0.657
17,GCGGGCU,0.953
18,GACCUGA,-0.894
19,UUAGUCA,-0.42
20,CCAGCAC,-0.431
21,UAAUCUU,-0.697
22,UGGGCUC,0.778
23,UAUUGUA,-0.446

row,Sequence,RNAcompete 7-mer binding Z-score
1,AUCCAAC,-0.755
2,CCACCUA,-0.686
3,CAGUGAC,-0.366
4,GCUCCUC,-0.613
5,AGUUGGU,1.56
6,UAAUAUG,-0.176
7,UAUACCG,-0.511
8,AUGCACC,-0.77
9,GACUCUA,-0.715
10,AUCCUAA,-0.905
11,AACUUCG,-0.592
12,CGCUUAU,-0.81
13,GCCUAGA,-0.712
14,GCAACGU,0.0859
15,CCUUUCG,-0.857
16,AGUGGUU,2.16
17,GGUUCCA,0.239
18,GUCUGCG,-0.42
19,CCCGCGG,0.232
20,GGUUGUU,0.654
21,GUGACCG,0.133
22,GCUGAGU,0.0131
23,CGGGUCU,0.432
